Measurements as given in the supplement of paper PMC10126150.
Sequences with one replicate were seen in a single cluster, so their values are uncertain.

Tested on: ATP
Experiment: switch fluorescence ratio, 500 uM ATP over buffer (Cy3 cluster intensity, sum of 5 cycles each) (fold (ratio)); higher = stronger signal-on switching upon ATP binding; sequences stand for … in TCGTCGGCAGCGTCAGATGTGTATAAGAGACAGTTTTTTTTTTTTTTTTTTTTTTTTT…TC
Details: aptamer strand: ATP DNA aptamer (quencher-CACCTGGGGGAGTATTGCGGAGGAAGG + anchor), 100 nM annealed; ATP concentration: 500 uM; one replicate
Procedure, shortened: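 Clusters carrying Cy3-labelled switching strands on a modified Illumina MiSeq flow-cell were annealed to 100 nM quencher-labelled ATP aptamer and imaged in selection buffer. They were imaged again after 15 min with 500 uM ATP at 22 °C, over five buffer/ATP cycles with NaOH stripping and re-annealing in between. For each cluster, the fluorescence ratio is the summed Cy3 intensity of the target cycles divided by that of the buffer cycles, averaged per switch-domain sequence. Clusters outside 100-1000 RFU were left out.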
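Note: ATP exposure 15 min at 22 °C before imaging.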

Row | Sequence | switch fluorescence ratio
1 | AGTTGAAAAT | 0.945
2 | AGTTGACATG | 1
3 | AGTTGACGTT | 0.987
4 | AGTTGAGCGT | 0.987
5 | AGTTGCACCA | 1.01
6 | AGTTGCAGTG | 0.99
7 | AGTTGCTGGT | 1.03
8 | AGTTGCTTA | 1.02
9 | AGTTGGCACC | 1.02
10 | AGTTGGTATG | 0.948
11 | AGTTGGTGGC | 0.994
12 | AGTTGTACTG | 1.04
13 | AGTTGTCACG | 1.03
14 | AGTTGTTAAT | 1
15 | AGTTTAAAGG | 1.06
16 | AGTTTAACA | 0.997
17 | AGTTTAATAA | 1.05
18 | AGTTTACCCG | 1.03
19 | AGTTTATAGG | 1.04
20 | AGTTTCAGTA | 0.97
21 | AGTTTCCATT | 1
22 | AGTTTCCGGT | 0.963
23 | AGTTTCGAGG | 0.998
24 | AGTTTGAAGT | 0.995
25 | AGTTTGCGAG | 0.935

Row | Sequence | switch fluorescence ratio
26 | AGTTTGCGTC | 1.01
27 | AGTTTGTAGC | 0.979
28 | AGTTTTACGG | 0.972
29 | AGTTTTGCTG | 1
30 | ATAAAAGGGT | 0.98
31 | ATAAACCGTT | 1.05
32 | ATAAACGGCC | 1.04
33 | ATAAACTCAA | 1.01
34 | ATAAACTCTC | 1.1
35 | ATAAATCTGC | 0.997
36 | ATAAATGCCA | 0.983
37 | ATAAATTAT | 1.01
38 | ATAACCGGCC | 2.89
39 | ATAACCGGCT | 1.18
40 | ATAACGAATC | 1.04
41 | ATAACGGCCG | 0.97
42 | ATAACTCTTC | 1.03
43 | ATAACTGTTT | 0.963
44 | ATAAGAAAAA | 1.08
45 | ATAAGAGAAA | 1.04
46 | ATAAGAGTCG | 0.967
47 | ATAAGGCTGG | 0.974
48 | ATAAGGGAAT | 1.01
49 | ATAAGTAGGA | 1.02
50 | ATAAGTGGCG | 1.11

Row | Sequence | switch fluorescence ratio
51 | ATAATACTTA | 1.03
52 | ATAATAGCAA | 1.54
53 | ATAATCGCAC | 1.15
54 | ATAATCTGAA | 0.999
55 | ATAATGGTAC | 1.07
56 | ATAATGGTGC | 1.01
57 | ATAATGTGAT | 0.966
58 | ATAATTTACA | 1.02
59 | ATACAAAACT | 1.03
60 | ATACACAGGG | 1.11
61 | ATACACTTGA | 1.08
62 | ATACAGGAGA | 1.02
63 | ATACATATAT | 1.01
64 | ATACATGTTG | 1.07
65 | ATACATTTAT | 0.989
66 | ATACCAGCGC | 0.996
67 | ATACCCAGCA | 1.07
68 | ATACCCCTTG | 1.05
69 | ATACCCGCAA | 4.79
70 | ATACCCTCTT | 1.05
71 | ATACGATAGC | 1.1
72 | ATACGCCCGG | 1.12
73 | ATACGCGCAA | 1.72
74 | ATACGGGGAA | 1.03
75 | ATACGTAAGC | 1.25

Row | Sequence | switch fluorescence ratio
76 | ATACGTGAGC | 1.04
77 | ATACTATCAG | 0.971
78 | ATACTCCCAG | 1.49
79 | ATACTGCCCT | 1.27
80 | ATACTTCTGT | 1.05
81 | ATACTTGAGG | 0.993
82 | ATACTTTGAC | 1.04
83 | ATACTTTTTC | 0.996
84 | ATAGAACGAG | 0.998
85 | ATAGAATAGC | 1.03
86 | ATAGACATAT | 0.948
87 | ATAGACGGGT | 0.98
88 | ATAGACGTGC | 1.02
89 | ATAGACGTTG | 0.977
90 | ATAGAGGGG | 0.966
91 | ATAGATGTAC | 1.03
92 | ATAGCACTGT | 1.06
93 | ATAGCATCGT | 1.01
94 | ATAGCCCCGA | 1.02
95 | ATAGCGAGG | 1.17
96 | ATAGCGGTTC | 1.1
97 | ATAGCGTAAT | 1.01
98 | ATAGCTAGAT | 0.997
99 | ATAGCTGTAC | 3.48
100 | ATAGCTTAAG | 1.02

Row | Sequence | switch fluorescence ratio
101 | ATAGGCATAT | 1.95
102 | ATAGGCGATT | 1.02
103 | ATAGGCGGGC | 1.01
104 | ATAGGCTGAC | 1.07
105 | ATAGGGGAAC | 1.03
106 | ATAGGTCCTG | 1.01
107 | ATAGGTGGGC | 0.984
108 | ATAGGTGTT | 1.12
109 | ATAGTAAACT | 1.02
110 | ATAGTAAAG | 1
111 | ATAGTAGTTG | 0.995
112 | ATAGTATTGG | 0.997
113 | ATAGTCAA | 0.986
114 | ATAGTCACCA | 1.04
115 | ATAGTCATGA | 0.973
116 | ATAGTGAATA | 1.04
117 | ATAGTGCATG | 0.975
118 | ATAGTGCCCA | 1.03
119 | ATAGTGTCCC | 0.969
120 | ATATAAGGAG | 0.98
121 | ATATAAGGCG | 1.03
122 | ATATAATAAC | 0.987
123 | ATATACGATC | 1.05
124 | ATATACGGCC | 1.05
125 | ATATACGTAG | 1.03

Row | Sequence | switch fluorescence ratio
126 | ATATACTCTA | 1.06
127 | ATATACTCTC | 1.05
128 | ATATACTTTC | 1.04
129 | ATATAGTCCC | 1.1
130 | ATATATCACT | 1.04
131 | ATATATGCCT | 0.979
132 | ATATATGTAG | 1.01
133 | ATATCAAAGG | 0.996
134 | ATATCAGACA | 1.07
135 | ATATCAGCAC | 1.03
136 | ATATCAGTTG | 1.05
137 | ATATCGAGAA | 0.968
138 | ATATCGGACT | 0.973
139 | ATATCGGTA | 0.994
140 | ATATCTCGTG | 1.03
141 | ATATCTGTAG | 0.987
142 | ATATCTTTAC | 1.01
143 | ATATGAGGAG | 1.02
144 | ATATGAGGG | 1
145 | ATATGATCAG | 1.01
146 | ATATGATCAT | 0.963
147 | ATATGCTTGT | 0.973
148 | ATATGGCGCG | 0.918
149 | ATATGGGCCA | 1.27
150 | ATATGGGGCG | 1.02

Row | Sequence | switch fluorescence ratio
151 | ATATGGTGGA | 1.01
152 | ATATGTATAA | 1
153 | ATATGTCGTC | 0.948
154 | ATATGTCTCT | 0.977
155 | ATATGTGCGA | 0.988
156 | ATATTATCGT | 1
157 | ATATTCAGCA | 0.983
158 | ATATTCCCCG | 1.34
159 | ATATTCGGGA | 1
160 | ATATTGCACT | 1.01
161 | ATATTGGATC | 1.02
162 | ATATTGGCTG | 1.02
163 | ATATTTATTC | 1.01
164 | ATATTTGGCA | 0.983
165 | ATCAAAGTCG | 1.02
166 | ATCAAATGTG | 0.95
167 | ATCAAATGTT | 0.987
168 | ATCAAGGAGG | 0.984
169 | ATCAATGAGG | 0.994
170 | ATCAATGATT | 0.997
171 | ATCAATGCTC | 1.71
172 | ATCAATTCGC | 1.05
173 | ATCAATTGAC | 0.989
174 | ATCAATTTGA | 0.993
175 | ATCACAGATG | 1

Row | Sequence | switch fluorescence ratio
176 | ATCACAGCAA | 2.4
177 | ATCACCGCTC | 1.51
178 | ATCACCTTAC | 2.44
179 | ATCACGAGCG | 1.04
180 | ATCACGCTTG | 1.01
181 | ATCACGGAAT | 1.09
182 | ATCACGGGAG | 1.07
183 | ATCACGGTGT | 1.04
184 | ATCACTTGGC | 0.938
185 | ATCAGACGAC | 1.08
186 | ATCAGGATGG | 1.05
187 | ATCAGGTAGT | 1.03
188 | ATCAGGTCTG | 1.02
189 | ATCAGTACG | 1.01
190 | ATCAGTTTCG | 0.963
191 | ATCAGTTTGA | 0.998
192 | ATCATATAGG | 1.02
193 | ATCATCCAAC | 1.05
194 | ATCATGACCA | 0.99
195 | ATCATGAGTG | 1.04
196 | ATCATGAGTT | 0.997
197 | ATCATGCTAT | 1.02
198 | ATCATGTAGG | 1.04
199 | ATCATTGCCA | 0.962
200 | ATCCAAAGAT | 0.976
